Results: PubChem BioAssay AID504845 (National Center for Advancing Translational Sciences (NCATS), 2011)
Out of some 390,000 compounds screened, about 150 (0.038%) were called active. Inconclusive means that the source gave no clear call. Such entries were picked first, then a sample of the others. The call rests on the fitted dose curve; in most records, active means well fitted inhibition curve with a large enough effect; inconclusive means small, poorly fitted or top-dose-only effect; inactive means no such curve, though single readings can be large or run the other way. Where the call is inconclusive, the potency comes from a doubtful curve fit.

target: Regulator of G-protein signaling 4 (Homo sapiens) (UniProt P49798); assay: Inhibitors of Regulator of G Protein Signaling (RGS) 4: qHTS; conditions: Transcreener GDP fluorescence polarization, RGS4-accelerated GTP hydrolysis; series mostly up to 114 µM; activity change, negative = inhibition: at the top concentration; further: nearly all actives have a fitted effect of over 75% in size
How it was run: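 MLSMR compounds (23 nl, pin-transferred) preincubated 10 min at room temperature with a 500nM (2x) first reagent, then RGS4 at 900nM (2x) plus Transcreener GDP mix added; fluorescence polarization (620/688 nm) read before and after 90 min at 30 °C.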
On the % scale 0 is the no-effect control and ±100 the full control effect; potency means the concentration at half of the fitted maximal effect; tags describe the fitted curve by direction and shape.

Sequence of UniProt P49798 (P49798 whole entry, looked up): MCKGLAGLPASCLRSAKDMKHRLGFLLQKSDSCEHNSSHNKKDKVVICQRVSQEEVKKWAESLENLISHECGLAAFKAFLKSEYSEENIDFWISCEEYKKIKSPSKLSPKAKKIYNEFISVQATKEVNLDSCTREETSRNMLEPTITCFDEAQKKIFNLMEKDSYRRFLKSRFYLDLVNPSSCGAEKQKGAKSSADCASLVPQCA

Compound	Potency	activity change, negative = inhibition
Cc1cc(N2C(=O)C=CC2=O)c([N+](=O)[O-])cc1C	inconclusive: 28.2 µM [inhibitor, full curve, poor fit]	–
CCCNC(=S)Nc1cc2oc3ccccc3c2cc1OC	–	inactive: 0.622%
Cc1ccc(C(=O)COC(=O)CSc2cccc3cccnc23)c(C)c1	inconclusive: 89.1 µM [inhibitor, partial curve, poor fit]	–
CCOC(=O)C(Nc1ccc2ccccc2c1)C(=O)OCC	inconclusive: 89.1 µM [inhibitor, partial curve, poor fit]	–
COc1ccc(C[C@H]2CN3C(=NC[C@@H]3C(C)C)N2C[C@H](C)NC(=O)c2ccc(C)c(Br)c2)cc1	inconclusive: 89.1 µM [inhibitor, single point]	–
Cn1cnc(Sc2ncnc3nc[nH]c23)c1[N+](=O)[O-]	inconclusive: 100 µM [inhibitor, single point]	–
CCOc1ccc(CCN2C(=O)C(=O)N([C@@H](Cc3ccc(O)cc3)CN3CCC[C@@H]3CN3C(=O)C(=O)NC[C@@H]3Cc3ccccc3)C[C@@H]2Cc2ccccc2)cc1	inconclusive: 28.2 µM [inhibitor, full curve, poor fit]	–
O=C1NC(=S)CN1c1ccccc1	inconclusive: 31.6 µM [inhibitor, full curve, poor fit]	–
Cc1ccccc1CS(=O)(=O)Cc1ccc(C(=O)NCc2ccccn2)o1	–	inactive: -6.63%
CCN1C(=O)c2ccccc2Sc2ccc(NC(=O)COc3ccc(Cl)cc3)cc21	inconclusive: 89.1 µM [inhibitor, partial curve, poor fit]	–
COc1ccc(S(=O)(=O)NCCc2sc(C)nc2C)cc1F	inconclusive: 79.4 µM [inhibitor, partial curve, poor fit]	–
FC(F)(F)c1nnc2ccc(NCn3nnc4ccccc43)nn12	inconclusive: 100 µM [inhibitor, single point]	–
CCn1c(-c2csc3ccccc23)n[nH]c1=S	inconclusive: 89.1 µM [inhibitor, single point]	–
Fc1ccc(/C=N/n2c(C3CCCCC3)n[nH]c2=S)cc1	inconclusive: 44.7 µM [inhibitor, partial curve, poor fit]	–
CCCC[n+]1c(C)sc2ccc(C)cc21	inconclusive: 10 µM [inhibitor, full curve, poor fit]	–
Cc1cc(-n2cccn2)ccc1CN1CCN(CC(C)C)C(CCO)C1 (stereo unspecified)	–	inactive: -9.41%
COCCOC(=O)/C(=C/c1ccc(OC(=O)c2ccccc2)cc1)C(C)=O	inconclusive: 8.91 µM [inhibitor, full curve, poor fit]	–
Cc1ccc(O)c(N=NC2=C(O)CC(C)(C)CC2=O)c1	–	inactive: -40.3%
COc1ccc(-c2csc3nc(C)nc(N4CCCCC4)c23)cc1OC	–	inactive: -26.4%
O=c1cc(CO)oc(C(Nc2cccc(C(F)(F)F)c2)c2ccccn2)c1O (stereo unspecified)	inconclusive: 50.1 µM [inhibitor, partial curve, poor fit]	–
Cc1c(NC(=O)Nc2ccc(Cl)c(Cl)c2)sc(=S)n1C	inconclusive: 79.4 µM [inhibitor, partial curve, poor fit]	–
CCOC(=O)c1c[nH]c(=S)n(-c2ccccc2)c1=O	–	inactive: 15.5%

Compound	Potency	activity change, negative = inhibition
N#C/C(=C\c1ccc(N2CCOCC2)o1)c1ccccc1	inconclusive: 20 µM [inhibitor, full curve, poor fit]	–
O=C(c1cc2cc3ccc(Cl)cc3nc2o1)N1CCCCCC1	–	inactive: 7.17%
CCCn1c(C(O)c2cc(OC)ccc2OC)nc2ccccc21 (stereo unspecified)	inconclusive: 79.4 µM [inhibitor, single point]	–
Cc1nnc(NC(=O)c2nc(S(=O)(=O)Cc3ccccc3)ncc2Cl)s1	inconclusive: 79.4 µM [inhibitor, single point]	–
Cc1ccc(NC(=S)N(CCCN2CCOCC2)Cc2cccs2)c(C)c1	inconclusive: 50.1 µM [inhibitor, partial curve, poor fit]	–
COc1ccc(C(=O)NCC(c2ccco2)N2CCc3ccccc32)cc1 (stereo unspecified)	–	inactive: -3.05%
Cc1cccc(-c2n[nH]c(=S)n2/N=C/C=C/c2ccco2)c1	inconclusive: 17.8 µM [inhibitor, full curve, poor fit]	–
O=C(/C=C/c1ccco1)Nc1ccc2nn(-c3ccccc3)nc2c1	–	inactive: -53.5%
CC[C@]12c3[nH]c4cc(-c5ccco5)ccc4c3CCN1C(=O)[C@@H](CC(=O)NCCCOC)C[C@@H]2C(=O)N1CCN(C(=O)c2ccco2)CC1	inconclusive: 31.6 µM [inhibitor, full curve, poor fit]	–
CC(NC(=O)c1ccc(S(=O)(=O)N(C)C)cc1)c1ccccc1 (stereo unspecified)	inconclusive: 89.1 µM [inhibitor, single point]	–
O=C(NCCF)C1Nc2ccc(OC(F)(F)F)cc2C2C=CCC12 (stereo unspecified)	inconclusive: 79.4 µM [inhibitor, partial curve, poor fit]	–
CCOC(=O)C=C(C(=O)OCC)C(=O)OCC	inconclusive: 79.4 µM [inhibitor, partial curve, poor fit]	–
C=CCNC(=S)NNc1nc2c(c(=O)[nH]1)C1(CCCCC1)Cc1ccccc1-2	–	inactive: -25.1%
N#Cc1ccc(NC(=O)Cn2cnc([N+](=O)[O-])c2)cc1	–	inactive: 1.41%
Cc1ccc(NC(=O)CSc2nc3ccccc3c3nc(CCn4c(C)nc5ccccc54)nn23)cc1F	inconclusive: 79.4 µM [inhibitor, partial curve, poor fit]	–
CCCc1nnc(NC(=O)c2nc(S(=O)(=O)Cc3ccc(C)cc3)ncc2Cl)s1	inconclusive: 50.1 µM [inhibitor, partial curve, poor fit]	–
CC(C)(C)C1CCc2onc(C(=O)Nc3sc4c(c3C(N)=O)CCCC4)c2C1 (stereo unspecified)	inconclusive: 31.6 µM [inhibitor, full curve, poor fit]	–
Fc1ccc(CNc2ncnc3c2c(-c2ccccc2)cn3-c2ccccc2)cc1	inconclusive: 89.1 µM [inhibitor, single point]	–
Cn1c(=O)n(C)c2cc(S(=O)(=O)Nc3ccccc3C(=O)O)ccc21	inactive	–
O=C(COc1ccccc1)Nc1sc2c(c1C(=O)NCc1cccnc1)CCCC2	inconclusive: 56.2 µM [inhibitor, partial curve, poor fit]	–
O=C(OCCN1CCN(c2ncc(C(F)(F)F)cc2Cl)CC1)c1ccc(F)cc1	–	inactive: 6.32%
NC(=O)c1ccccc1NC(=S)NC(=O)CCc1ccccc1	inconclusive: 50.1 µM [inhibitor, partial curve, poor fit]	–

Compound	Potency	activity change, negative = inhibition
CCc1ccc(C(=O)c2cn(CC(=O)Nc3ccc(F)cc3)c3cc4c(cc3c2=O)OCO4)cc1	inconclusive: 89.1 µM [inhibitor, single point]	–
Cc1ncoc1C(=O)Nc1ncc([N+](=O)[O-])s1	inconclusive: 39.8 µM [inhibitor, partial curve, poor fit]	–
CC(C)C[C@H](NC(=O)c1[nH]cnc1C(=O)N[C@@H](C)c1ccccc1)C(=O)OC(C)(C)C	–	inactive: 0.833%
Cc1cc(C)c2cc3c(N)c(C(=O)N4CCOCC4)sc3nc2c1	inconclusive: 79.4 µM [inhibitor, partial curve, poor fit]	–
COCCNC(=S)N/N=C/c1ccc(-c2ccc([N+](=O)[O-])cc2)o1	inconclusive: 79.4 µM [inhibitor, partial curve, poor fit]	–
Cc1nnc(SCC2=C(C(=O)O)N3C(=O)C(NC(=O)COc4ccccc4)C3SC2)s1 (stereo unspecified)	inconclusive: 17.8 µM [inhibitor, full curve, poor fit]	–
O=C(Nc1nccs1)c1cc(-c2ccccc2)nc2ccccc12	–	inactive: 12.1%
Cc1cccc(C(=O)Nc2ccc(N3CCN(c4ccc(C(F)(F)F)cn4)CC3)nc2)c1	–	inactive: 8.59%
CC1Cc2ccccc2N1C(=O)CNc1cccc(S(=O)(=O)N2CCCC2)c1 (stereo unspecified)	inconclusive: 39.8 µM [inhibitor, full curve, poor fit]	–
Cc1ccc(/C=c2\sc3nc(-c4cccnc4)nn3c2=O)cc1	inconclusive: 50.1 µM [inhibitor, partial curve, poor fit]	–
Nc1c2c(nc3ccccc13)CCCC2	inconclusive: 1.89 µM [inhibitor, partial curve, poor fit]	–
C=CCn1c(SCC(=O)c2ccccc2)nnc1-c1ccc2c(c1)OCO2	inconclusive: 50.1 µM [inhibitor, partial curve, poor fit]	–
COC(=O)/C=C/C(=O)N1CCN(c2ccccc2C)CC1	–	inactive: 8.09%
COc1ccc(NC(=O)c2cc3ccccc3cc2OC)cc1	inconclusive: 100 µM [inhibitor, partial curve, poor fit]	–
O=C(CSc1nnc(Cc2cccs2)n1Cc1ccco1)Nc1cccc(Cl)c1	inconclusive: 44.7 µM [inhibitor, partial curve, poor fit]	–
O=C(CCl)N1CCN(S(=O)(=O)c2ccc3ccccc3c2)CC1	–	inactive: -36.2%
Cc1ccc(N(CC(=O)NCc2ccco2)S(=O)(=O)c2ccccc2)cc1	inconclusive: 89.1 µM [inhibitor, single point]	–
COC(=O)CCc1sc(Nc2ccc(OC)cc2)nc1-c1ccc(OC)cc1	–	inactive: -16.8%
Cc1ccc2cc(CN(CC3CCCO3)C(=S)NCc3ccco3)c(=O)[nH]c2c1C (stereo unspecified)	inconclusive: 17.8 µM [inhibitor, full curve, poor fit]	–
Cc1ccccc1OCCNC(=O)CNC(=O)c1ccccc1O	–	inactive: -28.3%
Cc1ccc(-n2nnnc2Sc2ccc(S(=O)(=O)NCCN(C)C)cc2[N+](=O)[O-])cc1	–	inactive: -4.02%
Oc1ccc(/C=N/Nc2ccc(Cl)nn2)c(O)c1O	inconclusive: 50.1 µM [inhibitor, partial curve, poor fit]	–
